# Laboratory results reported in PubChem BioAssay AID686978 (National Center for Advancing Translational Sciences (NCATS), 2013).
# The whole screen tested about 420,000 compounds, of which about 64,000 (15%) were called active. Calls follow the shape of the dose curve; as a rule, active = well fitted inhibition curve with a large enough effect; inconclusive = small, poorly fitted or top-dose-only effect; inactive = flat fitted curve, though single readings scatter. Inconclusive results, whose numbers are uncertain, are shown. Potencies of inconclusive entries are left out as doubtful fits.
# Assay: qHTS for Inhibitors of human tyrosyl-DNA phosphodiesterase 1 (TDP1): qHTS in cells in absence of CPT; also: nearly all actives have a fitted effect of over 55% in size
# Conditions: DT40 Tdp1-/- hTDP1 cells, no CPT, ATP luminescence, 48 h; series mostly up to 46.2 µM
# Outline: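 DT40 Tdp1-/-;hTDP1 cells, no CPT (DMSO vehicle only), 400 cells/well; compounds pin-transferred; ≥48 hr, 37 °C; CellTiter-Glo 30 min RT dark, luminescence read.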
# Potency is read from the fitted curve at half-maximal effect; tags tell the direction and shape of the fitted curve.
row,Structure (SMILES),Potency
1,O=C(O)COc1ccccc1/C=N/NC(=O)CSc1nnc(SCc2cccc3ccccc23)s1,"inconclusive [inhibitor, single point]"
